# Source: the supplement of paper PMC9174493
# The list shows a part of the results. Single values of this set are uncertain. Values with irradiation are relative to irradiated vehicle.
# Tested on: A549-Dual
# Test: ISRE reporter (Lucia luciferase) activity, viability-corrected, relative to vehicle (fold change vs vehicle); higher = more activation of STING-IRF / NF-kB immune response reporter
# Conditions: 0.3 µM; irradiation: 8 Gy/4 fr
row,SMILES,ISRE reporter
1,COc1cc2nccc(Oc3ccc(NC(=O)Nc4cc(C)on4)c(Cl)c3)c2cc1OC [Tivozanib (AV-951)],0.816
2,Oc1ccc(/C=C/c2cc(O)cc(O)c2)cc1 [Resveratrol],0.858
3,Nc1cccc2c1C(=O)N(C1CCC(=O)NC1=O)C2=O (configuration not stated) [Pomalidomide],1.24
4,COc1cc(C2c3cc4c(cc3C(OC3OC5COC(c6cccs6)OC5C(O)C3O)C3COC(=O)C23)OCO4)cc(OC)c1O (configuration not stated) [Teniposide],0.467
5,S=c1nc[nH]c2nc[nH]c12 [Mercaptopurine (6-MP)],1.06
6,CC(C(=O)O)c1ccc2c(c1)CC(=O)c1ccccc1S2 (configuration not stated) [Zaltoprofen],0.791
7,Cc1nc(Nc2ncc(C(=O)Nc3c(C)cccc3Cl)s2)cc(N2CCN(CCO)CC2)n1.Cl [Dasatinib hydrochloride],0.215
8,"O=c1[nH]cc(F)c(=O)[nH]1 [Fluorouracil (5-Fluoracil, 5-FU)]",1.76
9,COc1cc(/C=C/C(=O)/C=C(O)/C=C/c2ccc(O)c(OC)c2)ccc1O [Curcumin],0.947

# Same assay, conditions: 0.3 µM; irradiation: none
row,SMILES,ISRE reporter
1,CC1=C(CC(=O)O)c2cc(F)ccc2/C1=C\c1ccc(S(C)=O)cc1 (configuration not stated) [Sulindac],0.985
2,C1N2CN3CN1CN(C2)C3 [Methenamine],0.803
3,COc1ccc2cc(C(C)C(=O)[O-])ccc2c1.[Na+] (configuration not stated) [Naproxen Sodium],1.02
4,Cc1ccc(Cl)c(Nc2ccccc2C(=O)[O][Na])c1Cl [Meclofenamate Sodium],1
5,O=C(OCCOCCO)c1ccccc1Nc1cccc(C(F)(F)F)c1 [Etofenamate],0.635
6,O=C([O-])c1cc(N=Nc2ccc(O)c(C(=O)[O-])c2)ccc1O.[Na+].[Na+] [Olsalazine Sodium],0.725
7,CC(=O)Nc1ccc(OC(=O)c2ccccc2OC(C)=O)cc1 [Benorylate],0.641
8,CO/N=C(\C(=O)NC1C(=O)N2C(C(=O)OCOC(=O)C(C)(C)C)=C(C)CSC12)c1csc(N)n1.Cl (configuration not stated) [Cefetamet pivoxil hydrochloride],0.631
9,CCC(C(=O)O)c1ccc(N2Cc3ccccc3C2=O)cc1 (configuration not stated) [Indobufen],0.787
10,CS(=O)(=O)O.Cc1ccc(NC(=O)c2ccc(CN3CCN(C)CC3)cc2)cc1Nc1nccc(-c2cccnc2)n1 [Imatinib Mesylate (STI571)],1.02
11,CC(C(=O)O)c1ccc(C(=O)c2ccccc2)s1 (configuration not stated) [Tiaprofenic acid],1.27
12,CCc1nc(N)nc(N)c1-c1ccc(Cl)cc1 [Pyrimethamine],1.44
13,COc1cc(C2c3cc4c(cc3C(OC3OC5COC(C)OC5C(O)C3O)C3COC(=O)C23)OCO4)cc(OC)c1O (configuration not stated) [Etoposide],3.83
14,CN(C)CCC(c1ccc(Br)cc1)c1ccccn1.O=C(O)/C=C\C(=O)O (configuration not stated) [Brompheniramine hydrogen maleate],1.18
15,CC12CCC3c4ccc(O)cc4CC(CCCCCCCCCS(=O)CCCC(F)(F)C(F)(F)F)C3C1CCC2O (configuration not stated) [Fulvestrant],1.08
16,O=C([O-])CC(O)(CC(=O)[O-])C(=O)[O-].O=C([O-])CC(O)(CC(=O)[O-])C(=O)[O-].[BiH6+3].[K+].[K+].[K+] [Gastrodenol],0.913
17,CCCCC1(COC(=O)CCC(=O)O)C(=O)N(c2ccccc2)N(c2ccccc2)C1=O [Suxibuzone],1.05
18,O=C(O)Cc1ccccc1Nc1c(Cl)cccc1Cl.OCCN1CCCC1 [Diclofenac Epolamine],0.561
19,Cl.N=C1CCCN1Cc1[nH]c(=O)[nH]c(=O)c1Cl.O=c1[nH]c(=O)n(C2CC(O)C(CO)O2)cc1C(F)(F)F.O=c1[nH]c(=O)n(C2CC(O)C(CO)O2)cc1C(F)(F)F (configuration not stated),2.47
20,NC(CO)(CO)CO [Trometamol],0.753
21,COc1ccc2c(c1)c(CC(=O)O)c(C)n2C(=O)c1ccc(Cl)cc1 [Indomethacin],0.967
22,Cn1cnc([N+](=O)[O-])c1Sc1ncnc2nc[nH]c12 [Azathioprine],0.988
23,NCCNc1ccc(NCCN)c2c1C(=O)c1ccncc1C2=O.O=C(O)/C=C\C(=O)O.O=C(O)/C=C\C(=O)O [Pixantrone Maleate],3.83
